The target of the test is T1, 35S-labeled full-length ERα(1-595) (Homo sapiens (Human), UniProt P03372 1-595, 35S-labeled in in vitro transcription/translation (TNT) reactions).
T1 construct: In vitro translated from pcDNA3.1-ERα; also called 35S-labeled ERα
T1 sequence: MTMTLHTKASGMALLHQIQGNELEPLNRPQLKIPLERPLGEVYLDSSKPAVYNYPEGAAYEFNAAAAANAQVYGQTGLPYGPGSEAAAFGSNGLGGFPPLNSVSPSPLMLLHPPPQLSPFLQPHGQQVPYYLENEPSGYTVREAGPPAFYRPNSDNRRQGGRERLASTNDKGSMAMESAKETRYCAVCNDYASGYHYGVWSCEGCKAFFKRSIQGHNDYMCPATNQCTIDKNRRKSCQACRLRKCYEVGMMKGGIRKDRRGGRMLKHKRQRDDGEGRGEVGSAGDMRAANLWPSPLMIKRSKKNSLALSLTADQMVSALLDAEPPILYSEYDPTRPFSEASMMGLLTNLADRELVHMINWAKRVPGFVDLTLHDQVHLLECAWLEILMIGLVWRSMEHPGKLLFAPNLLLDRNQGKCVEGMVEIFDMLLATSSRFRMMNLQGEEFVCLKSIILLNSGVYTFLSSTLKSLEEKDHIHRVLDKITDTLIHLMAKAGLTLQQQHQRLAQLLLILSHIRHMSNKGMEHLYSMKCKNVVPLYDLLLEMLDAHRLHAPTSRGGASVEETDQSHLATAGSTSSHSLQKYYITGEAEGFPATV
The test can be described thus: GST pull-down on glutathione beads, 35S-labeled ERα, phosphoimaging. How it is done:
To localize the region within MUC1-CD that interacts with ERα, ³⁵S-labeled full length ERα was incubated with deletion mutants of MUC1-CD.

B1: GST (other)
chain: not shown
notes: Negative control in the pull-down assays; also called glutathione S-transferase
Regarding B1, the binding result was “no binding”.

Source of the values: patent publication US20080311575A1 (published 2008).
